# Screen size: about 310,000 compounds; about 2,200 (0.71%) showed an effect of 50% or more. Effects have a minus sign here. The list shows a part of the results.
# Biological target: human ether-à-go-go-related gene (hERG) potassium channel (human, UniProt Q12809)
# Experiment: primary screen, population patch clamp on CHO cells stably expressing hERG
# Chain of human ether-à-go-go-related gene (hERG) potassium channel (Q12809 whole entry, looked up): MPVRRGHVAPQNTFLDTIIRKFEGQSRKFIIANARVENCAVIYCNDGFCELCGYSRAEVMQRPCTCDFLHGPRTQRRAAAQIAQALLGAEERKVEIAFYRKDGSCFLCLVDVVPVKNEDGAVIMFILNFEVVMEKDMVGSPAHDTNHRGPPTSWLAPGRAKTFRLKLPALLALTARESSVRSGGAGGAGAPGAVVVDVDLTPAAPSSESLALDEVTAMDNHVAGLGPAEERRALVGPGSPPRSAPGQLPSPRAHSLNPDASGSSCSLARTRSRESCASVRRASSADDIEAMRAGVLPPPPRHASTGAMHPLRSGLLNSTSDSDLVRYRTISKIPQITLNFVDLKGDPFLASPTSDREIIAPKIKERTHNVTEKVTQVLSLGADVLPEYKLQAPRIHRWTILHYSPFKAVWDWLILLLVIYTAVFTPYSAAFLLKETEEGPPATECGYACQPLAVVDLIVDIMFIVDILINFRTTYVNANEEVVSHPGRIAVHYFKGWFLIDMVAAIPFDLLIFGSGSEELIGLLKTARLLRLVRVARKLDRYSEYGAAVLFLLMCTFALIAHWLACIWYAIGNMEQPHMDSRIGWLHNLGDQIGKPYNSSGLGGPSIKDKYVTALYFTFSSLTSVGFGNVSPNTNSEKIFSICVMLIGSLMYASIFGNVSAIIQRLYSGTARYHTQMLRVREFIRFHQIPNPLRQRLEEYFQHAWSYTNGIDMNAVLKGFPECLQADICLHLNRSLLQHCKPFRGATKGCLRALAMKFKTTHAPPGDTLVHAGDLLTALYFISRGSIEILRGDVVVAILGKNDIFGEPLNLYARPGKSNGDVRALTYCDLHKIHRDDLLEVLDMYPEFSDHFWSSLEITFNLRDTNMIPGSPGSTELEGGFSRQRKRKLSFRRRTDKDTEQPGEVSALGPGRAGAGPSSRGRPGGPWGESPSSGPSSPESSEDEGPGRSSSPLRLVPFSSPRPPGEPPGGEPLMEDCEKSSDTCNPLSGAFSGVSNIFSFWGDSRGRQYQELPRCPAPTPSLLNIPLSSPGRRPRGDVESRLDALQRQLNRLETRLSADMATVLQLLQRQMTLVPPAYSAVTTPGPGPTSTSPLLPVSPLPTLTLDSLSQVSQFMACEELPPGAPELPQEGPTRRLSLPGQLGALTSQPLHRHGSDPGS
row,SMILES,"hERG current change (%, negative = inhibition) at 1uM"
1,Cc1cccn2c(=O)c3cc(C(=O)NC4CCCCCC4)sc3nc12,15.1%
2,COc1ccc(OC)c(NC(=O)CCC(=O)Nc2nnc(C(F)(F)F)s2)c1,3.57%
3,Cc1ccnc(NS(=O)(=O)c2ccc(NC(=O)/C=C/c3ccccc3)cc2)n1,11.9%
4,Cc1nc2ccccc2n1CC(O)COCC1CC=CCC1 (stereo not drawn),3.03%
5,CO/N=C\CC(=O)Nc1ccc(F)cc1,2.34%
6,CCOC(=O)c1ccc(N2C(=O)c3cccc4c(C(=O)O)ccc(c34)C2=O)cc1,13.2%
7,Cc1cc(C)n(-c2ccc(C(=O)Nc3cccnc3Cl)cc2)n1,7.99%
8,CCOc1cc(N2CCOCC2)c(OCC)cc1NC(=O)CN1C(=O)NC(Cc2ccccc2)C1=O (stereo not drawn),0.111%
9,C=C(C)Cn1c(C2CC(=O)N(Cc3ccccc3)C2)nc2ccccc21 (stereo not drawn),-6.49%
10,Clc1ccc(Cl)c2sc(N3CCCC3)nc12,9.26%
11,Cc1ccc(N2C(=O)c3ccccc3C2(O)c2ncc[nH]2)cc1 (stereo not drawn),17.7%
12,Cc1cc(N2CCCCC2)nc(N2CCCCC2)n1,2.91%
13,C=CCn1c(O)c(C=NCCCOc2ccc(CC)cc2)c(=O)[nH]c1=S,9.6%
14,CC(O)CNc1nc2c(c(=O)n(Cc3ccc(Cl)c(Cl)c3)c(=O)n2C)n1C (stereo not drawn),12%
15,C=CCOc1ccc2nc(NC(=O)OC)[nH]c2c1,-1.78%
16,COc1ccc(N=C2SC(CC(=O)Nc3cccc(Cl)c3)C(=O)N2Cc2ccco2)cc1 (stereo not drawn),4.66%
17,Cc1ccc(C2=NNC(C(O)C(O)C(O)CO)S2)cc1 (stereo not drawn),9.85%
18,COc1ccc(C(=O)N2CCN(c3ccccc3)CC2)cc1S(=O)(=O)N1CCCC1,1.84%
19,COc1ccc(CN(C)C(=O)C23CC4CC(CC(C4)C2)C3)c(OC)c1,6.56%
20,S=c1[nH]nc(CN2CCCCC2)n1-c1ccc(Cl)cc1,12.6%

row,SMILES,"hERG current change (%, negative = inhibition) at 1uM"
1,CCOC(=O)N1CCC(N(CCN(C)C)C(=S)Nc2ccc(F)c(Cl)c2)CC1,12.8%
2,O=C(Nc1cccc(-c2cn3cccnc3n2)c1)Nc1ccccc1F,6.45%
3,COc1cccc(-c2nc(CS(=O)(=O)CC(=O)Nc3cc(F)ccc3F)c(C)o2)c1,17.3%
4,CC(C)CCNC(=O)CN1N=C(c2ccc(Cl)cc2)CCC1=O,4.85%
5,CC(=O)Nc1ccc(S(=O)(=O)NCc2nc(-c3ccccc3C)no2)cc1,11.8%
6,COCCOC(=O)c1c(C)n(C)c2ccc(OC(=O)N(C)C)cc12,9.96%
7,CNC(=O)c1cc(NC(=O)CCn2nc(-c3ccccc3)c3ccccc3c2=O)ccc1OC,7.91%
8,Cc1oc(-c2cccs2)nc1CS(=O)CC(=O)NCCCOC(C)C (stereo not drawn),1.87%
9,CCOC(=O)c1c(C)[nH]c(C)c1C(=O)COC(=O)CCOc1ccccc1OC,10.2%
10,Cc1ccc(/C=N/NC(=O)c2c[nH]c3ccccc23)s1,13.5%
11,O=C(CNC(=S)N(CCCN1CCOCC1)Cc1cccs1)NC1CCCCCCC1,-23.1%
12,COC(=O)Cn1ccc2cc(S(=O)(=O)N3CCCCC3)ccc21,15.2%
13,CC(=O)OC(C[N+]1(C)CCCCCC1)c1ccccc1.[I-] (stereo not drawn),16.4%
14,CCOC(=O)C1=C(CBr)NC(=O)NC1C (stereo not drawn),14.1%
15,O=c1c2ccccc2nnn1-c1ccc(Br)cc1,14.5%
16,O=C(CN1C(=O)/C(=C/c2cccc(Br)c2)SC1=S)NCCCN1CCOCC1,7.47%
17,CCOc1cc(S(=O)(=O)Nc2ccc(Cl)cn2)ccc1F,12.2%
18,C=CCNc1oc(-c2cccs2)nc1S(=O)(=O)c1ccccc1,-4.58%
19,CCN1CCN(C(=O)COc2ccc(S(=O)(=O)Nc3ccc(Cl)cc3)cc2)CC1,12.1%
20,O=C(NNc1ccccc1F)c1ccccc1,2.87%

row,SMILES,"hERG current change (%, negative = inhibition) at 1uM"
1,Cc1ccc(NC(=O)NC(=O)CN2CCC(C(N)=O)CC2)c(C)c1,11.2%
2,COc1ccc(CNC(=O)c2cccc(N3CCCC3=O)c2)cc1,4.69%
3,O=C(N/N=C/c1ccco1)c1cc(C2CC2)[nH]n1,6.81%
4,COc1nc(-c2ccc(Cl)cc2)nnc1C,8.46%
5,O=C(O)c1ccc2c(c1)ncn2C1CCCC1,8.61%
6,CCc1noc(C)c1C(=O)N1CCCSC1=Nc1ccccc1,10.3%
7,Cc1cccc(NC(=O)CSc2nc(N)cc(N)n2)c1,8.66%
8,Cc1cc(C)cc(Nc2c3c(nc4ncnn24)CCC3)c1.Cl,3.81%
9,CCOc1ccccc1NC(=O)NC(=O)N(C)S(=O)(=O)c1ccc(C)cc1,9.85%
10,CCOc1ccc(NC(=O)CCC(=O)O)cc1,15.4%
11,O=C(CCc1ccc(S(=O)(=O)NCCc2ccccc2)cc1)Nc1ccc2c(c1)OCO2,17.8%
12,CCN(CC)C(=O)CSc1nc(O)c(Cc2ccccc2)c(=O)n1-c1ccccc1C,4.72%
13,CC(C)(C)C1CCc2onc(C(=O)O)c2C1 (stereo not drawn),21%
14,COc1cc(/C=N/NC(=O)c2ccc(NS(=O)(=O)c3cccs3)cc2)cc(OC)c1O,12.1%
15,COCCCNC(=O)CC(NS(=O)(=O)c1ccc(C)cc1)c1ccco1 (stereo not drawn),23.8%
16,CCc1ccc(Nc2oc(C)cc(=O)c2C(C)=O)cc1,8.18%
17,CCc1nnc(NC(=O)c2cccnc2)s1,8.17%
18,COCCNc1cc(-c2ccccc2)nc2cc(-c3cccc(F)c3)nn12,-0.755%
19,O=C1CN(C(=O)/C=C/c2ccccc2)CCN1,17%
20,Cc1ccccc1NS(=O)(=O)c1ccc(C(=O)N2CCCC(C(F)(F)F)C2)cc1 (stereo not drawn),8.41%
